In PMC4336329 (PLoS ONE, 2015):
The whole screen tested about 310,000 compounds, of which about 2,200 (0.71%) showed an effect of 50% or more. Effects have a minus sign here. This is one part of the list.

target: human ether-à-go-go-related gene (hERG) potassium channel (human, UniProt Q12809); assay: primary screen, population patch clamp on CHO cells stably expressing hERG
Sequence (Q12809 whole entry, looked up): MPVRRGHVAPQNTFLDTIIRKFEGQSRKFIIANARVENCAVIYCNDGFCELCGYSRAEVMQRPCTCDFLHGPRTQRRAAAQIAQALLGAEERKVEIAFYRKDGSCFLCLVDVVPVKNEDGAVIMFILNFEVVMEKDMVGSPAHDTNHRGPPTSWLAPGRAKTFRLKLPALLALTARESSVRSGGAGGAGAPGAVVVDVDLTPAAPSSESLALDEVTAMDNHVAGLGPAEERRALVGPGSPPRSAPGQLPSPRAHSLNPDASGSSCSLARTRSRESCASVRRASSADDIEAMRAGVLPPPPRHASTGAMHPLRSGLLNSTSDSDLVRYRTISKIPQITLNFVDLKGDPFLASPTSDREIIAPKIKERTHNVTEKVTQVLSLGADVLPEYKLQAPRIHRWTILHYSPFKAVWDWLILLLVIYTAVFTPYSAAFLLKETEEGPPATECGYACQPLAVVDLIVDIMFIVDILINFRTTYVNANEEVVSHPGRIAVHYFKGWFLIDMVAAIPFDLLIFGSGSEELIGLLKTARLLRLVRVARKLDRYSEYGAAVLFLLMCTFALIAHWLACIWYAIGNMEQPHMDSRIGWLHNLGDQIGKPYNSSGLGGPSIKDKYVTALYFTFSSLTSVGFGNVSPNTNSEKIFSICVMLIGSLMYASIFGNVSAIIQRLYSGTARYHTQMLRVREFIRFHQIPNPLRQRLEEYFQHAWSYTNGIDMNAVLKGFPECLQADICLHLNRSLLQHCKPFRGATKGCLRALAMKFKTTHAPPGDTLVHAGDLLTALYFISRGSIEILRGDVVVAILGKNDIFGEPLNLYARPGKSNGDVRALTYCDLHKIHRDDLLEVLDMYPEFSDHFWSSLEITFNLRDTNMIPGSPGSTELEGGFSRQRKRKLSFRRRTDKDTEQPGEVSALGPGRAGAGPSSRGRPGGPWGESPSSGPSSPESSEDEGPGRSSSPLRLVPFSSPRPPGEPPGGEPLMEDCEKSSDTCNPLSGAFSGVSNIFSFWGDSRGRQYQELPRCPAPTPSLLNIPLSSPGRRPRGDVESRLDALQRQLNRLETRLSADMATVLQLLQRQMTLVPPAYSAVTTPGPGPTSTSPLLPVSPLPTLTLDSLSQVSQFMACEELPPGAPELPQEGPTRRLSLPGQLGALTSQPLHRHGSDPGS

SMILES	hERG current change (%, negative = inhibition) at 1uM
CC(C)c1ccc(C(=O)NN2CCOCC2)cc1	-1.52%
CCCn1c(=O)c2sccc2n2c(CCCC(=O)NCC3CCCO3)nnc12 (stereo not shown)	12%
COc1ccc(-c2ccccc2)cc1NC(=O)c1ccncc1	11.2%
CCCN1C(=O)/C(=c2\s/c(=C3\C=Cc4ccccc4N3CC)c(=O)n2-c2ccccc2)SC1=S	10.5%
COc1ccc2c(c1)c1ncn(Cc3ccc(F)cc3)c(=O)c1n2C	5.9%
CC(=O)Nc1ccc(OCCOc2ccc(NC(C)=O)cc2)cc1	6.09%
Cc1[nH]c2ccccc2c1CCN	9.22%
Cc1ccc(OCCSc2nc3ccccc3n2CCC(=O)O)cc1	15.5%
Cc1nc2sc(-c3ccccc3)cc2c(=O)n1/N=C/N(C)C	6.86%
C=CCn1c(SCc2nc3ccccc3[nH]2)nnc1-c1cccc(OC)c1	-0.942%
COc1ccc(S(=O)(=O)c2c(O)c3ccc(C(=O)Nc4ccccc4Cl)cc3[nH]c2=O)cc1	2.62%
CCOC(=O)c1ccc(NC(=O)c2nc(SC)ncc2Cl)cc1	11.2%
COc1ccccc1/C=C/c1nc2ccc(OC(C)=O)cc2c(=O)o1	14.2%
CCOc1cc(C2C3=C(CC(C)(C)CC3=O)OC3=C2C(=O)CC(C)(C)C3)cc([N+](=O)[O-])c1O	15.7%
CCOC(=O)c1cc2c(cn1)[nH]c1ccccc12	6.89%
Cc1ccc(Cl)cc1NC(=O)COC(=O)c1ccc(COc2ccc3c(C)cc(=O)oc3c2)cc1	9.59%
COc1ccc(/C(C)=C2\SC(=S)N(CCC(=O)O)C2=O)cc1	9.3%
Cc1cc(=O)oc2c(C)c(OC3CCCCC3=O)ccc12 (stereo not shown)	18.8%
Cc1cc(C)n2cc(CSc3nnc(-c4ccccc4)o3)nc2n1	0.9%
CCN(CC)C(=O)C1CCCN(Cc2nc(-c3cccs3)no2)C1 (stereo not shown)	11.3%

SMILES	hERG current change (%, negative = inhibition) at 1uM
NC(=NCCc1ccc(Cl)cc1)NS(=O)(=O)c1ccc(F)cc1	10.6%
CCOc1ccc(C(F)(F)F)cc1NC(=O)COc1ccc(C(F)(F)F)cc1[N+](=O)[O-]	15.8%
Cc1cc(NC(=O)c2ccccc2F)nc2c1c(=O)oc1ccccc12	12.2%
O=C(NNc1cccc(Cl)n1)Nc1ccccc1Cl	18.6%
COc1ccc(F)cc1C(=O)C1CCCN(Cc2ccc(Oc3ncccn3)cc2)C1 (stereo not shown)	-34.8%
CC(C)CCNC(=O)CCCc1ccccc1	22.1%
Cc1cc(-c2[nH]nc3c2C(c2cccc(O)c2)C(C#N)=C(N)O3)c(C)s1 (stereo not shown)	-0.819%
COc1cc(NC(=O)c2cc3c(=O)n(C)c4ccccc4c3n2C)cc(OC)c1OC	11.8%
COCCn1c(SCC(=O)NC2(C#N)CCCCC2)nc2ccccc2c1=O	-12.8%
Cc1ccc(SCC(=O)Nc2cccc(NC(=O)c3ccco3)c2)cc1	11.4%
O=C(C1CC(c2ccccc2O)=NO1)N1CCC2(CC1)OCCO2 (stereo not shown)	9.19%
CN(CC(=O)NCCCc1ccccc1)Cc1ccc(Br)cc1	10.2%
COc1ccc(C)cc1NC(=O)C(OC(=O)c1cc(C)oc1C)c1ccccc1 (stereo not shown)	7.61%
CCOc1ccccc1NC(=O)N1CCc2ccccc2C1	18.1%
O=C1CCCC2=C1C(c1ccccc1)CC(=O)N2c1ccc(F)cc1F (stereo not shown)	6.84%
Cn1c(=O)oc2cc(S(=O)(=O)NCc3ccccc3)ccc21	12.8%
Cc1ccc(C(=O)N2CCN(c3ccccn3)CC2)cc1[N+](=O)[O-]	8.77%
O=C1Oc2ccccc2C(=O)/C1=C/c1ccccc1O	5.07%
CC(=O)Nc1nn(C)c2nc3cc(C)ccc3cc12	8.35%
Cc1ccc(C2Nc3cccc4cccc(c34)N2)s1	5.44%

SMILES	hERG current change (%, negative = inhibition) at 1uM
COc1ccc(OC)c2sc(N3CCN(C(=O)c4ccc([N+](=O)[O-])s4)CC3)nc12	-9.5%
Cn1c(N)cc(=O)n(Cc2ccccc2)c1=O	11.1%
CCC(=O)N1C(Cc2ccccc2)COC1(C)C (stereo not shown)	7.04%
COCc1cc(C)nc(N2CCCCC2)c1C#N	13.1%
Cc1ccc(NC(=O)c2ccccc2Cl)c(Cl)c1	7.11%
COc1ccc(NC(=O)/C(C#N)=C/c2ccc(OCCN3CCOCC3)c(OC)c2)c(OC)c1	13.2%
COc1cc(C)c(Cl)c(C)c1S(=O)(=O)NC1CC(C)(C)NC(C)(C)C1	12.7%
O=C(CN1CCOCC1)Nc1ccccc1C(=O)Nc1ccccc1	7.99%
CCOC(=O)c1sc(NC(=O)CSc2nc(-c3ccco3)cc(C(F)(F)F)n2)c(C(=O)OC)c1C	11.4%
O=C(O)C(=O)O.c1csc(-c2nnc(N3CCCCCC3)c3ccccc23)c1	-0.203%
Cc1ccc(NC(=S)NCCSc2ccc(Cl)cc2)c(C)c1	12.6%
OCC1CCCCN1C(=S)NCc1ccco1 (stereo not shown)	-3.9%
Cn1c(=O)[nH]c(=O)c2c1nc(N1CCN(Cc3ccccc3)CC1)n2CCSc1ncccn1	6.83%
O=C(COC(=O)C1CCN(c2ccc(C(F)(F)F)cn2)CC1)NCc1ccc(F)cc1	8.96%
COC(=O)CCCC(=O)Nc1ccc(Br)cc1	16.3%
Cc1ccccc1OCc1occc1C(=O)Nc1cccc(-n2cnnn2)c1	5.69%
C=C(C)CSc1nnc([C@@H]2CCCN2C(=O)OC(C)(C)C)o1	15.5%
CCc1noc(C)c1C(=O)N1CCN(S(=O)(=O)c2ccc(Cl)cc2)CC1	3.82%
